The whole screen tested about 360,000 compounds, of which about 16,000 (4.4%) were called active. This list was built around the results that the source calls inconclusive (neither active nor inactive); the mix of calls is not that of the screen. Calls come from the whole dose curve; as a rule, active = well fitted inhibition curve with a large enough effect; inconclusive = small, poorly fitted or top-dose-only effect; inactive = no such curve, though single readings can be large or run the other way. Potencies beside an inconclusive call are fits to weak or partial responses and may not hold up.
These compounds were tested against Bromodomain adjacent to zinc finger domain protein 2B (Homo sapiens) (UniProt Q9UIF8) (assay: qHTS Assay for Inhibitors of BAZ2B). Conditions: AlphaScreen BAZ2B-H3K14Ac peptide displacement; series mostly up to 114 µM.
Sequence of UniProt Q9UIF8 (Q9UIF8 whole entry, looked up, the tested form may be a part): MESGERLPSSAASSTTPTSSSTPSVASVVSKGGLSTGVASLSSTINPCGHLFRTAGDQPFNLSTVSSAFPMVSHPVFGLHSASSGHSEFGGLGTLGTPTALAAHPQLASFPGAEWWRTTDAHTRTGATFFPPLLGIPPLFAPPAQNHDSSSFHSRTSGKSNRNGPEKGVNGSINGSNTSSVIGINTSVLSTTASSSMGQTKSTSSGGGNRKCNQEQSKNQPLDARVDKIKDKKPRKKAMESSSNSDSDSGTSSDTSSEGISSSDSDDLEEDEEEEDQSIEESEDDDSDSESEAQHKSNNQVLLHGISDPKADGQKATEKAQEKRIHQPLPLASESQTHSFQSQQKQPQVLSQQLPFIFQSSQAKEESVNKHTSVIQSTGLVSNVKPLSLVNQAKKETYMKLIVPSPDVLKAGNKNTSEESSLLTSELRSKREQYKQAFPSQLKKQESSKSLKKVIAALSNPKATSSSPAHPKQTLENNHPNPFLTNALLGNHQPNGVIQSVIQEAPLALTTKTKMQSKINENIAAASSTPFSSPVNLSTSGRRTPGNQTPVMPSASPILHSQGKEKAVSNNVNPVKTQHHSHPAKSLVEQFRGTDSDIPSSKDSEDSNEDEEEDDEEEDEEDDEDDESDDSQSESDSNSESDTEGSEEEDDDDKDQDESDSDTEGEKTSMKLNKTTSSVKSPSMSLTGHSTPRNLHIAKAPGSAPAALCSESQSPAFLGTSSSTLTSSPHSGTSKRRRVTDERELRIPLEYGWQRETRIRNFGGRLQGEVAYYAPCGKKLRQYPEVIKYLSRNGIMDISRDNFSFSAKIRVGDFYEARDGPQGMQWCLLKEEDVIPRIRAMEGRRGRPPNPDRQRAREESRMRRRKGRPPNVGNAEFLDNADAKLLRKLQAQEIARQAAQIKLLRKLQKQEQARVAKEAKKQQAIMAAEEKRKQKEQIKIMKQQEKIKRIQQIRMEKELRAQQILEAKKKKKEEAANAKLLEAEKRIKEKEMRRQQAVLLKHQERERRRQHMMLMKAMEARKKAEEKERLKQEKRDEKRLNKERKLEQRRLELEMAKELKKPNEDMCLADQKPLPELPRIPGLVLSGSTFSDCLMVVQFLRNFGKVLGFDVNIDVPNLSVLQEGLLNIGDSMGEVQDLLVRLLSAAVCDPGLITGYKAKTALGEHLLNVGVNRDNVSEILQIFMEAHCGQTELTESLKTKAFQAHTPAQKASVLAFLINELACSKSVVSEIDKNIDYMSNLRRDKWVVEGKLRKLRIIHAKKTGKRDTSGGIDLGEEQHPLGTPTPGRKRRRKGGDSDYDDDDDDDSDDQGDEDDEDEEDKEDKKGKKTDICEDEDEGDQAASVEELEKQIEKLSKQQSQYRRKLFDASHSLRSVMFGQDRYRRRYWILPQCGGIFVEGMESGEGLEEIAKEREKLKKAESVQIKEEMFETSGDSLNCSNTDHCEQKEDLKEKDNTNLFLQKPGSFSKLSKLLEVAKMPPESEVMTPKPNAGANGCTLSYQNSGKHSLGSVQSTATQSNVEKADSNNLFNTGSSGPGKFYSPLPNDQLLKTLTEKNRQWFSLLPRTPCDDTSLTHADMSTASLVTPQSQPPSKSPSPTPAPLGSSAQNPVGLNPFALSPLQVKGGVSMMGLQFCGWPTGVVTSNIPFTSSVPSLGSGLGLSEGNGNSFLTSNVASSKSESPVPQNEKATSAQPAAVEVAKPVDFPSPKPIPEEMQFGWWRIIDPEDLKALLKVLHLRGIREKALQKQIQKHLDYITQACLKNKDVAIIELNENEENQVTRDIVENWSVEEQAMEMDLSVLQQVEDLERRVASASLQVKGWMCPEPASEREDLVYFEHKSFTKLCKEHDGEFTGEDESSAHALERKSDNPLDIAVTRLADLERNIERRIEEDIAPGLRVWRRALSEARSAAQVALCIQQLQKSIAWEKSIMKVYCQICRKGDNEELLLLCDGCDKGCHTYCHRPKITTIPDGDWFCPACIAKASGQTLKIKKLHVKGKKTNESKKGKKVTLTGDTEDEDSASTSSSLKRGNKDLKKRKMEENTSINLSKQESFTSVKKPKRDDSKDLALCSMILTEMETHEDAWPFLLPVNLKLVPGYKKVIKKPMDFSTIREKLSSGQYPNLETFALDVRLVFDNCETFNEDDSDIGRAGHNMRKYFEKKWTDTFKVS
How it was run: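 In this displacement format the biotinylated H3(5-23) peptide acetylated at Lys14 serves as ligand at 50 nM, with BAZ2B at 50 nM in PBS pH 7.4 containing 0.01% Tween-20. Donor and acceptor beads are 10 ug/mL final.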
Note: nearly all actives have a fitted effect of over 60% in size.
Potency is the fitted concentration of half-maximal effect; tags give direction and shape of the fitted curve.

| SMILES | Potency |
| --- | --- |
| CCNC(=S)NNc1ccccc1 | inconclusive: 79.4 µM [inhibitor, single point] |
| CSc1ccc(/C=N/Nc2cccc(C(=O)O)c2)cc1 | active: 8.91 µM |
| N#CC1=C(N)NC(SCC(=O)Nc2ccccc2)=C(C#N)C12CCCCC2 | inconclusive: 79.4 µM [inhibitor, single point] |
| Cc1ccsc1/C=N/NC(=O)C1CC(=O)N(c2ccccc2)C1 (stereo not given) | inconclusive: 89.1 µM [inhibitor, single point] |
| Cc1c(Br)c([N+](=O)[O-])nn1CC(=O)N1CCN(Cc2ccccc2)CC1 | inconclusive: 79.4 µM [inhibitor, single point] |
| COc1ccc(CCNc2ncnc3c2c(-c2ccccc2)cn3-c2cccc(Cl)c2)cc1OC | inactive |
| CN1CCN(C(=O)CCN2C(=O)/C(=C/c3ccccc3Cl)SC2=S)CC1 | inconclusive: 39.8 µM [inhibitor, full curve] |
| O=C(COC(=O)c1ccc(Cl)c(S(=O)(=O)N2CCCCC2)c1)NCc1ccco1 | inconclusive: 39.8 µM [inhibitor, partial curve] |
| COc1cc(C2CC(=O)Oc3c(C(CCN4CCCC(C)C4)c4ccc(N(C)C)cc4)c(OC)cc(OC)c32)cc(OC)c1OC (stereo not given) | active: 35.5 µM |
| CCN(CC)CCNC(=O)c1ccc(NC(=O)Cc2ccsc2)cc1 | inconclusive: 56.2 µM [inhibitor, partial curve] |
| C#C[C@]1(O)CC[C@H]2[C@@H]3CCC4=C(CCC(=O)C4)[C@H]3CC[C@@]21C | inconclusive: 89.1 µM [inhibitor, single point] |
| O=C(c1ccc(Cl)c([N+](=O)[O-])c1)N1CCN(c2ccccn2)CC1 | inactive |
| O=C(CSc1nc(=O)n(Cc2ccco2)c2c1CCC2)NCc1ccccc1Cl | inactive |
| CSC(=NNC(=O)c1ccccc1O)SC | inconclusive: 89.1 µM [inhibitor, single point] |
| CCOC(=O)/C=C(\C)Sc1cc(=O)oc2ccccc12 | inactive |
| O=C(NC(=S)Nc1ccccc1N1CCCC1)c1ccc(F)cc1 | active: 25.1 µM |
| COc1ccc(Cc2nnc(N/N=C/c3ccc(O)cc3)[nH]c2=O)cc1OC | active: 7.08 µM |
| CCOc1ccc(CNC(=O)CCn2c(=O)c3cccn3c3cccnc32)cc1 | inconclusive: 89.1 µM [inhibitor, single point] |
| COc1ccc(-c2nc3n(c2Br)CCC3)cc1 | active: 50.1 µM |
| O=C1Nc2cc(C(=O)NCCCN3CCCC3)ccc2S/C1=C\c1ccccc1 | inconclusive: 39.8 µM [inhibitor, partial curve] |

Reference: PubChem BioAssay AID504333 (National Center for Advancing Translational Sciences (NCATS), 2011)
